Measured values published in PubChem BioAssay AID485294 (National Center for Advancing Translational Sciences (NCATS), 2010).
About 150 (0.041%) of roughly 370,000 compounds were called active. Inconclusive results, whose numbers are uncertain, are shown with a selection of clear calls. Calls follow the shape of the dose curve; as a rule, active = well fitted inhibition curve with a large enough effect; inconclusive = small, poorly fitted or top-dose-only effect; inactive = flat fitted curve, though single readings scatter. Potencies of inconclusive entries are left out as doubtful fits.

Molecular target: Beta-lactamase (Escherichia coli (strain K12)) (UniProt P00811)
Test: qHTS Inhibitors of AmpC Beta-Lactamase (assay with detergent); also: nearly all actives have a fitted effect of over 25% in size
Details: AmpC hydrolysis of nitrocefin, absorbance 480 nm, 0.01% Triton; series mostly up to 114 µM
Method in brief: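 20 mM phosphate pH 7.0 + 0.01% (detergent screen) or 0.0001% Triton X-100; 5.3 nM AmpC reagent; cpd preinc 15 min RT; nitrocefin (800 uM stock) to start; A480 q20 s × 4 min; Activity was normalised to no-enzyme and no-compound control wells.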
Potency is read from the fitted curve at half-maximal effect; tags tell the direction and shape of the fitted curve.

Chain of UniProt P00811 (P00811 whole entry, looked up): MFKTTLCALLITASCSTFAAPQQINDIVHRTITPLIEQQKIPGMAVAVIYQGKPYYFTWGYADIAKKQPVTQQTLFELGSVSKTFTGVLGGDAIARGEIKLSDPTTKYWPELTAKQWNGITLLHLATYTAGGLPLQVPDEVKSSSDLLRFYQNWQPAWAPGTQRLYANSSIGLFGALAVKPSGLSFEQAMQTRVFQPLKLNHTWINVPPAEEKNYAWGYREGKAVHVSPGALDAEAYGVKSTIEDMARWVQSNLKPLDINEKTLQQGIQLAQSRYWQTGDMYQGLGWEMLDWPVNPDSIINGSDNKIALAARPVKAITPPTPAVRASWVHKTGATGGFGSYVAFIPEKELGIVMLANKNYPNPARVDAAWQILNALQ

Row | SMILES | Potency
1 | CCCn1c(N)c(C(=O)CN(C)CC(=O)Nc2ccccc2CC)c(=O)[nH]c1=O | inconclusive [inhibitor, partial curve, poor fit]
2 | CCOc1ccc(C(=O)Nc2ccccc2N2CCOCC2)cc1 | inactive
3 | CN(CCCC(=O)NCc1ccccc1)S(=O)(=O)c1ccc([N+](=O)[O-])cc1 | inactive
4 | COCCN(C(=O)CCC(=O)Nc1nccs1)C(C(=O)NC(C)(C)C)c1ccc(C)cc1 (stereo not drawn) | inactive
5 | COCCN(C(=O)CCc1nnc(CCc2c[nH]c3ccccc23)o1)C(C)C | inactive
6 | COc1cc(OC)cc(C(=O)Nc2cccc3cccnc23)c1 | inconclusive [inhibitor, full curve, poor fit]
7 | COc1ccc(-n2c(=S)[nH]c3cc(C(=O)NCCCN4CCCC4=O)ccc3c2=O)cc1OC | inconclusive [inhibitor, single point]
8 | Cc1ccccc1OCCCCCNCCO | inconclusive [inhibitor, single point]
9 | CCNC(=O)n1cc(-n2cncn2)c(-c2ccc(Cl)cc2)n1 | inconclusive [inhibitor, full curve]
10 | CCn1c(SCC(=O)Nc2sc3c(c2C(N)=O)CCC(C)C3)nnc1-c1ccco1 (stereo not drawn) | inconclusive [inhibitor, partial curve]
11 | CC(=O)c1ccc(N2CCN(CC(=O)N(C3CC3)C3CCS(=O)(=O)C3)CC2)c(F)c1 (stereo not drawn) | inactive
12 | COc1cccc(NC(=O)c2cnn(-c3ccccc3)c2-n2cccc2)c1 | inactive
13 | Cc1ccc(NC(=S)Nn2cnnc2)cc1 | inactive
14 | FC(F)(F)c1ccc2c(c1)nnn2C1CCN(Cc2nnnn2Cc2ccccc2)CC1 | inconclusive [inhibitor, full curve, poor fit]
15 | OC(CN1CCN(c2ccccc2)CC1)Cn1c2ccccc2c2ccccc21 (stereo not drawn) | inconclusive [inhibitor, full curve, poor fit]
16 | CCOC(=O)c1ccccc1NC1c2ccccc2C(=O)N1c1ccc(C)cn1 (stereo not drawn) | inconclusive [inhibitor, full curve, poor fit]
17 | COc1ccc(OC)c(N(CC(=O)Nc2ccccc2)S(=O)(=O)c2ccccc2)c1 | inconclusive [inhibitor, partial curve, poor fit]
18 | CCN(CC)C(=O)CSc1nc(COc2ccccc2)nc2ccccc12 | inconclusive [inhibitor, full curve, poor fit]
19 | CCc1nc(SCC(=O)c2c[nH]c3ccccc23)n[nH]1 | inconclusive [inhibitor, single point]
20 | N#Cc1cn(-c2ccccc2)nc1-c1cc2ccccc2oc1=O | inconclusive [inhibitor, full curve, poor fit]
21 | CCOC(=O)c1sc2ncn(CC(=O)Nc3ccc(C)cc3Br)c(=O)c2c1C | inconclusive [inhibitor, partial curve, poor fit]
22 | O=c1onc(-c2ccc(Cl)cc2)n1Cc1ccc(F)cc1 | inconclusive [inhibitor, full curve, poor fit]

Row | SMILES | Potency
23 | Cc1ccc(S(=O)(=O)N2CCN(c3ccc(C(F)(F)F)cc3[N+](=O)[O-])CC2)cc1 | inconclusive [inhibitor, partial curve, poor fit]
24 | Cc1ccc2c(Cl)cc(Cl)c(OCC(=O)NCCc3ccccn3)c2n1 | inactive
25 | CCOC(=O)C1CCN(C(=O)c2cccc(S(=O)(=O)N3CCc4ccccc43)c2)CC1 | inconclusive [inhibitor, single point]
26 | CN(C)CCCN1C(=O)c2cccc3c(Br)ccc(c23)C1=O | inactive
27 | O=C(O)c1cccc(NC(=O)C2C3C=CC(C3)C2C(=O)OCC(F)(F)C(F)F)c1 (stereo not drawn) | inactive
28 | COc1ccc(CNC(=O)CC(c2ccc(OC)c(OC)c2)N2Cc3ccccc3C2=O)cc1 (stereo not drawn) | inactive
29 | Cn1c(CNc2cccc(Cl)c2)nnc1SCC(=O)OC1CCCCC1 | inconclusive [inhibitor, full curve, poor fit]
30 | Cc1nn(-c2ccccc2)c(Cl)c1C(=O)N(C)CC(=O)Nc1cccc(F)c1 | inconclusive [inhibitor, single point]
31 | Cc1cccc(C)c1NC(=O)/C(=C/c1ccco1)c1ccccc1 | inactive
32 | COc1ccc(C(=O)NC2CCN(CC(=O)Nc3cccc(C)c3)CC2)cc1OC | inconclusive [inhibitor, partial curve]
33 | CCN(C(=O)CCN1C(=O)/C(=C/c2ccccc2)SC1=S)C1CCS(=O)(=O)C1 (stereo not drawn) | inactive
34 | COc1cccc(C(=O)NCCS(=O)(=O)N2CCCCC2)c1 | inconclusive [inhibitor, full curve, poor fit]
35 | Cc1ccc(NC(=O)C2CCCN2S(=O)(=O)c2ccc(F)cc2)c(C)c1 (stereo not drawn) | inconclusive [inhibitor, full curve, poor fit]
36 | CCn1c(=O)c(CCC(=O)NCC2CCCO2)c(C)c2c(C)nn(-c3ccc(C)cc3)c21 (stereo not drawn) | inactive
37 | O=C(CCS(=O)(=O)c1ccccc1)NC12CC3CC(CC(C3)C1)C2 | inconclusive [inhibitor, full curve, poor fit]
38 | CC(=O)c1cccc(NC(=O)N2CCCCCC2)c1 | inconclusive [inhibitor, full curve, poor fit]
39 | Cc1cc(=O)oc2cc(NC(=O)Cc3ccccc3[N+](=O)[O-])ccc12 | inconclusive [inhibitor, full curve, poor fit]
40 | C=CCOC(=O)C1=C(C)NC(SCC(N)=O)=C(C#N)C1c1cccs1 (stereo not drawn) | inconclusive [inhibitor, full curve, poor fit]
41 | C/C(=C\c1ccc(Br)cc1)C(=O)c1c(C)cc(C)[nH]c1=O | inconclusive [inhibitor, full curve]
42 | COC(=O)c1ccc(NC(=O)c2sc3nc(-c4ccccc4)cn3c2C)cc1 | inconclusive [inhibitor, partial curve]
43 | Cc1ccc(CNC(=O)C(=O)NCC(c2ccco2)S(=O)(=O)c2cccs2)cc1 (stereo not drawn) | inactive
